According to the supplement of paper PMC3334620:
The full ranking holds about 33,000 sequences; the median of “E-score (-0.5 to 0.5)” is about -0.012, and the highest 2% start at about 0.27. The list shows a part of the results.

Biological target: T1, Vhr1 (UniProt P40522)
T1 sequence: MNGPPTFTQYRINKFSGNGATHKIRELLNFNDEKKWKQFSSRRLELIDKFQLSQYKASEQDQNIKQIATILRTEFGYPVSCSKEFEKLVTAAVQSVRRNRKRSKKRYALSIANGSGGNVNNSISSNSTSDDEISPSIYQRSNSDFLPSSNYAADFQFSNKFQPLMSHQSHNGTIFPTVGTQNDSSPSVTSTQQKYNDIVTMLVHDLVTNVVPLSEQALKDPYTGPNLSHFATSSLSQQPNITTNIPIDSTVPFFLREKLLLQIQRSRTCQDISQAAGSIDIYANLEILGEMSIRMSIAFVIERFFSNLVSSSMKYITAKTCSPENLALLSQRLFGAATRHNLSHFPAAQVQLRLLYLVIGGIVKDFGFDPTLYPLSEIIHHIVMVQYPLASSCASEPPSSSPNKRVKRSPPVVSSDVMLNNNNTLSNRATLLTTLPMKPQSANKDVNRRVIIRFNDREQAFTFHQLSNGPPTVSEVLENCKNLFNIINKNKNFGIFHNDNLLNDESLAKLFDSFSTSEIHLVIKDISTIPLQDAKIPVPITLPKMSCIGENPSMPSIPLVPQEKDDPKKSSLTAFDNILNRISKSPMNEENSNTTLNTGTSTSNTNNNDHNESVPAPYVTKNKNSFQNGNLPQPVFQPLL
Test: PBM E-score (8-mer binding enrichment) (E-score (-0.5 to 0.5)); higher = stronger / more preferred TF binding; most listed sequences are background and not binding sites
Settings: protein concentration: 200 nM; construct: GST-full length
How it was run: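 Universal all-10-mer Agilent arrays, double-stranded by primer extension on fresh or once-stripped slides, were probed with about 100-200 nM GST-tagged yeast transcription factors made by PURExpress. Fluorescent anti-GST detected bound protein, and masliner normalised the scans. E-scores from the Universal PBM Analysis Suite were given to each ungapped eight-base word pooled with its reverse complement.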

| Sequence | PBM E-score |
| --- | --- |
| CCAGCCCG | 0.0415 |
| AATCGGCA | 0.056 |
| CAAAAGAG | -0.00151 |
| GGCAGTGA | 0.0755 |
| AAAAGTTA | -0.0918 |
| ACTTTCGA | -0.213 |
| GCGTACGC | -0.197 |
| GGGCAGAC | -0.141 |
| CACCGGCC | -0.0357 |
| CTCACTGA | 0.14 |
| AAGATCGG | -0.104 |
| GCGGTAAC | 0.00972 |
| AAAACGTG | -0.22 |
| GCCGCGCA | -0.0881 |
| ACTCAGGA | 0.268 |
| CCTATGGC | -0.135 |
| AAACGGTC | -0.118 |
| AGAATGGG | -0.0379 |
| GGCCGAAA | 0.157 |
| CTCCTTGC | -0.142 |
| AACGAAGA | -0.0778 |
| CCCTTAGC | -0.148 |
| CGTTAAAC | -0.136 |
| CACTAAAA | -0.0448 |
| TATGATCA | 0.152 |

| Sequence | PBM E-score |
| --- | --- |
| AGAGGTAA | -0.102 |
| GATCCGAA | 0.104 |
| ATGGAACA | -0.0846 |
| AGGGAAAC | -0.222 |
| GGCCGCAC | -0.00891 |
| GATGTAAA | -0.0985 |
| TCGTAACA | 0.101 |
| AATCCCGT | 0.166 |
| GGAAAAGA | -0.249 |
| ATTACGGA | -0.0323 |
| AGGATCTA | -0.316 |
| GGTCTCCA | 0.0322 |
| GAGTCTTA | 0.189 |
| AATTACGA | 0.0693 |
| CCTTGACG | -0.359 |
| AGGTGGCC | -0.139 |
| CACAAGGG | -0.168 |
| ACACAGGT | 0.154 |
| AGTGGGAC | 0.0716 |
| ATAAGTAG | -0.0715 |
| ATGCGAAA | 0.0354 |
| CTTATCTA | -0.0638 |
| CCTTCCAG | -0.164 |
| GGCCCGCA | 0.0404 |
| AGATGCCA | -0.0804 |

| Sequence | PBM E-score |
| --- | --- |
| AATGAAGA | 0.192 |
| AGAGCGTG | 0.0126 |
| CCATGACC | 0.11 |
| AGCCGCGC | 0.103 |
| CCTAGTTC | -0.103 |
| CAATGCGG | 0.109 |
| AAGTATAG | -0.211 |
| CACTAGGG | 0.0804 |
| GGACACAC | 0.198 |
| AGTACAAC | 0.0207 |
| ACTCAGGG | 0.27 |
| CGAGCGCG | 0.139 |
| GCCACCAA | 0.0796 |
| CACACCAA | 0.241 |
| ATGTCATA | 0.106 |
| GTTCTAGA | -0.0643 |
| CTGCTCCA | -0.0336 |
| AGCTTTTG | -0.324 |
| TCGTCGAA | -0.0649 |
| ACTCGTCG | 0.0708 |
| TATTTTCA | 0.0219 |
| TCTGGGAA | -0.135 |
| AGCTACCT | 0.0163 |
| ATTGCGAG | 0.117 |
| AATCGACA | 0.112 |

| Sequence | PBM E-score |
| --- | --- |
| GATTGCCA | 0.0953 |
| AACCAAAT | 0.0232 |
| CTGCGTTA | -0.0554 |
| GCATGACA | -0.0701 |
| CTTCGGCC | -0.243 |
| ATAGACAT | 0.16 |
| GGAGACCC | 0.0954 |
| GGCTGTGA | 0.0773 |
| GAGCAACC | 0.0833 |
| ATTAGACG | -0.0382 |
| ATTGAATA | 0.0225 |
| CGAACGGC | -0.124 |
| ATTATGAG | 0.0245 |
| ATCCACAG | 0.167 |
| AGTAGGGG | -0.101 |
| AGTCTTCA | 0.011 |
| AAAGTTGT | 0.0763 |
| AACGAGGC | -0.0752 |
| AGGTCGGA | 0.0419 |
| TGCTTAAA | -0.175 |
| GCCCTTCA | -0.063 |
| CATGTATC | 0.18 |
| CCAACGGG | 0.147 |
| CGGTATCA | 0.148 |
| GACGTCCC | -0.166 |

| Sequence | PBM E-score |
| --- | --- |
| AGAACATG | 0.101 |
| CGGCTGCC | 0.18 |
| AGGATGTG | 0.142 |
| ACGGGCCG | -0.114 |
| TCCAGTCA | 0.0988 |
| GATTTAGC | 0.0206 |
| TAAACCAA | -0.277 |
| ATTTACTC | 0.0979 |
| AGCGTAAT | -0.0972 |
| CCTCGTCG | 0.119 |
| CAGGGGTC | -0.0113 |
| TGGAGCCA | 0.0769 |
| AGATAGGC | -0.0638 |
| TACTAAGA | 0.0316 |
| AAGACTGG | 0.084 |
| CGACAGAG | 0.0418 |
| CGAGTCCG | 0.286 |
| CTGGAAAA | -0.0136 |
| CTGCGGAC | -0.0734 |
| CTAGTTAA | -0.054 |
| AACTCGGC | 0.00687 |
| GGGTCCAC | -0.152 |
| ACTGCAGA | -0.0788 |
| ACCACAGC | 0.0438 |
| TCGTGACA | 0.0389 |

| Sequence | PBM E-score |
| --- | --- |
| CCCCCGGG | -0.0967 |
| GGAGCAGA | -0.186 |
| AGAAGGTC | 0.103 |
| GAGGTGGA | -0.125 |
| GCCGAGGA | 0.109 |
| ACCGAAGG | -0.0663 |
| AGAAGTAT | 0.0798 |
| CGCGTAGA | -0.109 |
| AGCACGGG | -0.0752 |
| CATACCTA | 0.154 |
| ACGTGCCG | -0.0795 |
| CAATAGAG | -0.121 |
| AATGACAT | 0.0292 |
| TAAAGTAA | -0.152 |
| ACCTCAAG | -0.142 |
| CATTGAAC | 0.109 |
| CTTGACCC | -0.161 |
| AGATCAGG | -0.109 |
| GTTCTATA | 0.0332 |
| CTTCATGC | -0.0664 |
| AGCGTCAC | -0.205 |
| ACCGCCAG | 0.104 |
| GAAAGTAA | -0.149 |
| AAGTGACG | -0.126 |
| ACATCGGT | 0.204 |

| Sequence | PBM E-score |
| --- | --- |
| AAGAGCAA | -0.202 |
| CCCATAGA | -0.0433 |
| CGCTAAAA | -0.0348 |
| GTGCGCAC | 0.264 |
| CCTGATAG | -0.168 |
| ATCGGTCC | -0.0251 |
| AGAGCTCG | -0.206 |
| GTCTCGGA | 0.111 |
| AGGCTTGC | -0.173 |
| CTTCAGGA | 0.0283 |
| AGTCAAAA | 0.0686 |
| CCAGCATA | 0.0195 |
| ACACTTCA | -0.147 |
| ATGATTCC | 0.445 |
| GAGTCGAA | 0.269 |
| GGCGCGTA | -0.0776 |
| GATATTCC | -0.00471 |
| CCCCCCTA | -0.172 |
| CGCATATA | -0.00473 |
| TATGCACA | 0.0469 |
| ACTTTACC | 0.0552 |
| TGGGATAA | -0.238 |
| TCCTAGGA | -0.242 |
| AACCGAAT | 0.0718 |
| ATCTGTCA | -0.0327 |

| Sequence | PBM E-score |
| --- | --- |
| CTCGATTC | -0.161 |
| GCAAGTAA | 0.0248 |
| ACTGAGAC | 0.0998 |
| ATGGCTTC | 0.00791 |
| ATTACGCC | 0.00227 |
| AAATATCC | -0.0568 |
| ACGCCGAC | 0.247 |
| TCGGTTAA | 0.0423 |
| CGGGTGGA | 0.175 |
| CTGCGAGC | 0.149 |
| CACCTTGG | 0.0454 |
| GCAGGCTA | -0.168 |
| ACGTGGGC | -0.129 |
| CTGCCGGA | -0.0516 |
| ATTTCCGG | -0.0384 |
| ATCTTCAG | 0.00377 |
| GTGTGGCA | -0.102 |
| AAATTGGT | 0.0399 |
| TGGTTACA | 0.201 |
| ATACCTTC | -0.0805 |
| ACCAGAAG | -0.0723 |
| ACAGACTA | -0.209 |
| GTAAATTA | -0.151 |
| CAGGCCGC | -0.136 |
| ACCTTCAG | -0.0596 |

| Sequence | PBM E-score |
| --- | --- |
| ATTCCAAT | -0.0586 |
| AAGGCGCG | -0.099 |
| ATGCAATC | 0.149 |
| ATGGACTA | 0.125 |
| CGTATGAA | 0.114 |
| CTTCTTTA | -0.166 |
| CACACGAA | 0.135 |
| AAACCCGC | 0.0774 |
| ATGCCGAG | 0.00505 |
| CCGGCTCA | 0.0508 |
| TCTCCCCA | 0.0293 |
| ATGCCGGA | 0.0298 |
| GGCCGGTA | 0.19 |
| TAAGGGTA | -0.14 |
| CAATAACC | 0.139 |
| GAAACAGA | -0.14 |
| TACCCACA | 0.192 |
| TAGATTGA | -0.0407 |
| ACTAAGCC | 0.0315 |
